The full ranking holds about 81,000 sequences; the median of “one-hybrid fitness for binding NBS DNA” is about -0.1, and the highest 2% start at about 0.36. The list shows a part of the results.
B1: Caulobacter ParB omega fusion; a variant is named by its letters at X, in order, B8GW30 (parent)
chain: MESVVVGEPGMSEGRRGLGRGLSALLGEVDAAPAQAPGEQLGGSREAPIEILQRNPDQPRRTFREEDLEDLSNSIREKGVLQPILVRPSPDTAGEYQIVAGERAWRAAQRAGLKTVPIMVRELDDLAVLEIGIIENVQRADLNVLEEALSYKVLMEKFERTQENIAQTIGKSXSHVANXMRLLXLPDEVQSYLVSGELTAXHARAIAAAADPVALAKQIIEGGLSVRETEALARKAPNLSAGKSKGGRPPRVKDTDTQALESDLSSVLGLDVSIDHRGSTGTLTITYATLEQLDDLCNRLTRGI

Variants of: B1
Assay: one-hybrid fitness for binding NBS DNA (the Noc-binding site; scaled: cognate 1, non-cognate 0); higher = stronger binding
Conditions: with NBS DNA site
Procedure, shortened: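 Bacterial one-hybrid selection in E. coli USO rpoZ- hisB- pyrF- with a HIS3 reporter carrying the site 19 bp from the promoter, screening Caulobacter ParB libraries with four specificity codons randomised (NNS). Cells grew 48 hours at 37°C on M9-minus-histidine plus 0.1 mM IPTG and 5 mM 3-AT. Plasmids before and after selection were Illumina-sequenced, three replicate libraries pooled, and variants under 10 reads dropped. Fitness is the log change in variant-to-wild-type read ratio, rescaled to cognate 1, non-cognate 0.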

| Variant | one-hybrid fitness for binding NBS DNA |
| --- | --- |
| RVQI | ≤ 0.2 |
| ALPR | ≤ 0.2 |
| QMVQ | 0.283 |
| VDSW | ≤ 0.2 |
| QCDS | 0.28 |
| KQDS | ≤ 0.2 |
| QEQF | ≤ 0.2 |
| RCWF | ≤ 0.2 |
| YRRA | ≤ 0.2 |
| ILNV | ≤ 0.2 |
| QRII | ≤ 0.2 |
| LTLF | ≤ 0.2 |
| EDSS | ≤ 0.2 |
| CLKA | ≤ 0.2 |
| RIEK | ≤ 0.2 |
| WHMG | ≤ 0.2 |
| ATKA | ≤ 0.2 |
| LPPT | ≤ 0.2 |
| DLCL | ≤ 0.2 |
| TNHK | ≤ 0.2 |
| RAAH | ≤ 0.2 |
| QSHP | ≤ 0.2 |
| KYES | ≤ 0.2 |
| LVSM | ≤ 0.2 |
| LCVT | ≤ 0.2 |

| Variant | one-hybrid fitness for binding NBS DNA |
| --- | --- |
| HDSG | ≤ 0.2 |
| YDDS | ≤ 0.2 |
| STRA | ≤ 0.2 |
| CMLC | ≤ 0.2 |
| GMKS | ≤ 0.2 |
| PKTE | ≤ 0.2 |
| CSYS | ≤ 0.2 |
| GHMT | ≤ 0.2 |
| GYNT | ≤ 0.2 |
| GKTD | ≤ 0.2 |
| NNKC | ≤ 0.2 |
| QPWL | ≤ 0.2 |
| SRIF | ≤ 0.2 |
| RGVS | ≤ 0.2 |
| YCTN | ≤ 0.2 |
| IYLM | ≤ 0.2 |
| NTNM | ≤ 0.2 |
| QDAR | ≤ 0.2 |
| AYSF | ≤ 0.2 |
| EEFP | ≤ 0.2 |
| TCFL | ≤ 0.2 |
| PNPV | ≤ 0.2 |
| GGDV | ≤ 0.2 |
| TVLT | ≤ 0.2 |
| ICRS | ≤ 0.2 |

| Variant | one-hybrid fitness for binding NBS DNA |
| --- | --- |
| QMSS | 0.376 |
| DLIS | ≤ 0.2 |
| WRDW | ≤ 0.2 |
| WAPM | ≤ 0.2 |
| ASDE | ≤ 0.2 |
| LING | ≤ 0.2 |
| GYEL | ≤ 0.2 |
| GGMT | ≤ 0.2 |
| ALML | ≤ 0.2 |
| HQYG | ≤ 0.2 |
| MDWC | ≤ 0.2 |
| FWQR | 0.203 |
| ERSR | ≤ 0.2 |
| SQIS | ≤ 0.2 |
| KTEF | ≤ 0.2 |
| HFIS | ≤ 0.2 |
| RAKQ | ≤ 0.2 |
| GPCD | ≤ 0.2 |
| RMVM | ≤ 0.2 |
| CIVG | ≤ 0.2 |
| RAYE | ≤ 0.2 |
| RPCG | ≤ 0.2 |
| RKLV | ≤ 0.2 |
| RCSD | ≤ 0.2 |
| QMNF | ≤ 0.2 |

| Variant | one-hybrid fitness for binding NBS DNA |
| --- | --- |
| TSTW | ≤ 0.2 |
| CRTC | ≤ 0.2 |
| YSNN | ≤ 0.2 |
| HYIA | ≤ 0.2 |
| PGWS | ≤ 0.2 |
| FSIP | ≤ 0.2 |
| VMRV | ≤ 0.2 |
| RYSA | ≤ 0.2 |
| MSRL | ≤ 0.2 |
| DFEF | ≤ 0.2 |
| CVRD | ≤ 0.2 |
| MFTS | ≤ 0.2 |
| QENM | ≤ 0.2 |
| HPKW | ≤ 0.2 |
| AWVK | ≤ 0.2 |
| ATYE | ≤ 0.2 |
| IGLR | ≤ 0.2 |
| CIPT | ≤ 0.2 |
| TLPD | ≤ 0.2 |
| LCFD | ≤ 0.2 |
| GVVD | ≤ 0.2 |
| DMES | ≤ 0.2 |
| YEKT | ≤ 0.2 |
| RAWN | ≤ 0.2 |
| AATL | ≤ 0.2 |

| Variant | one-hybrid fitness for binding NBS DNA |
| --- | --- |
| KTAT | ≤ 0.2 |
| HNWA | ≤ 0.2 |
| YMYC | ≤ 0.2 |
| LSYA | ≤ 0.2 |
| LVFR | ≤ 0.2 |
| RLID | ≤ 0.2 |
| STKR | 0.254 |
| RFCN | ≤ 0.2 |
| NHSC | ≤ 0.2 |
| SYEL | ≤ 0.2 |
| LPKS | ≤ 0.2 |
| AYSV | ≤ 0.2 |
| YMLT | ≤ 0.2 |
| TLRY | ≤ 0.2 |
| QGHN | ≤ 0.2 |
| ESFS | ≤ 0.2 |
| HRLF | ≤ 0.2 |
| AKHH | ≤ 0.2 |
| RRFM | 0.266 |
| STCA | ≤ 0.2 |
| RHQM | ≤ 0.2 |
| GNGK | ≤ 0.2 |
| HNRK | ≤ 0.2 |
| ANEE | ≤ 0.2 |
| LVES | ≤ 0.2 |

| Variant | one-hybrid fitness for binding NBS DNA |
| --- | --- |
| IDIR | ≤ 0.2 |
| PGYS | ≤ 0.2 |
| WRNP | ≤ 0.2 |
| YQDF | ≤ 0.2 |
| YNDM | ≤ 0.2 |
| PMDV | ≤ 0.2 |
| IDNP | ≤ 0.2 |
| TLKH | ≤ 0.2 |
| LFIS | ≤ 0.2 |
| GNQT | ≤ 0.2 |
| VWIG | ≤ 0.2 |
| QHVN | ≤ 0.2 |
| EFEC | ≤ 0.2 |
| HFMS | ≤ 0.2 |
| ALIL | ≤ 0.2 |
| INPF | ≤ 0.2 |
| VMVP | ≤ 0.2 |
| KCDC | ≤ 0.2 |
| CLSV | ≤ 0.2 |
| TITQ | ≤ 0.2 |
| YMVD | ≤ 0.2 |
| RIFR | 0.243 |
| FVSL | ≤ 0.2 |
| RQAD | ≤ 0.2 |
| RQQR | 0.475 |

| Variant | one-hybrid fitness for binding NBS DNA |
| --- | --- |
| NLET | ≤ 0.2 |
| YAVR | ≤ 0.2 |
| FSNP | ≤ 0.2 |
| SHQN | ≤ 0.2 |
| FSAA | ≤ 0.2 |
| EHQT | ≤ 0.2 |
| KAKM | ≤ 0.2 |
| CNNG | ≤ 0.2 |
| PMYL | ≤ 0.2 |
| DYLN | ≤ 0.2 |
| RLDR | ≤ 0.2 |
| CCLN | ≤ 0.2 |
| PYEM | ≤ 0.2 |
| SLQM | ≤ 0.2 |
| WLFR | ≤ 0.2 |
| AFLS | ≤ 0.2 |
| MCII | ≤ 0.2 |
| PMQH | ≤ 0.2 |
| MFGA | ≤ 0.2 |
| RHFL | ≤ 0.2 |
| SQRN | ≤ 0.2 |
| RDKD | ≤ 0.2 |
| GFER | ≤ 0.2 |
| YNMS | ≤ 0.2 |
| GSRR | ≤ 0.2 |

| Variant | one-hybrid fitness for binding NBS DNA |
| --- | --- |
| YNTY | ≤ 0.2 |
| ADGG | ≤ 0.2 |
| MVTH | ≤ 0.2 |
| SSRH | ≤ 0.2 |
| KLHS | ≤ 0.2 |
| SGHV | ≤ 0.2 |
| HHPS | ≤ 0.2 |
| MPAV | ≤ 0.2 |
| DRHC | ≤ 0.2 |
| MCTC | ≤ 0.2 |
| GPEG | ≤ 0.2 |
| TPEK | ≤ 0.2 |
| VVPL | ≤ 0.2 |
| LYIG | ≤ 0.2 |
| PYMR | ≤ 0.2 |
| QIDR | 0.234 |
| QDML | ≤ 0.2 |
| KWPG | ≤ 0.2 |
| SYVA | ≤ 0.2 |
| DPKF | ≤ 0.2 |

— a collection of fitness landscapes (doi:10.1016/j.celrep.2020.107928)
